Assay results reported in the supplement of paper PMC11741623.
The other results are listed elsewhere or left out. Interaction screen of human proteins with wild-type SARS-CoV-2 proteins by split-DHFR complementation in yeast, 1 µg/mL methotrexate. Value = fitness of the pair (three or more lineages) minus that of the viral protein without a human partner, on a scale set by negative (0) and fused positive (1) controls, mean of up to three cultures; higher = more likely to interact. Active = false discovery rate below 0.05 (one-sided t-test) in at least one culture. Nearly all pairs are not hits, and differences among them are mostly noise (correlation between cultures about 0.3); most hits were seen in one culture only. Human sequences are the Swiss-Prot entries looked up by gene name; the clone may be another isoform. NSP2 values were corrected by the authors for a growth advantage. Listed are human proteins with a hit and a random twelfth of the others.

What was measured:
Experiment in all cases: yeast fitness gain over the viral ORF with no human partner (scaled fitness); higher = more likely to interact
SARS-CoV-2 M = target: SARS-CoV-2 M
Method: (§1)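 Split mouse DHFR complementation in pooled diploid yeast: human ORFeome clones carry one fragment and viral ORFs the other; barcoded lineages compete in 1 µg/mL methotrexate and fitness is read by barcode sequencing in up to three cultures.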

SARS-CoV-2 N = target: SARS-CoV-2 N
Method: as §1

SARS-CoV-2 NSP1 = target: SARS-CoV-2 NSP1
Method: as §1

SARS-CoV-2 NSP10 = target: SARS-CoV-2 NSP10
Method: as §1

SARS-CoV-2 NSP12 = target: SARS-CoV-2 NSP12
Method: as §1

SARS-CoV-2 NSP13 = target: SARS-CoV-2 NSP13
Method: as §1

SARS-CoV-2 NSP14 = target: SARS-CoV-2 NSP14
Method: as §1

SARS-CoV-2 NSP2 = target: SARS-CoV-2 NSP2
Method: as §1

SARS-CoV-2 NSP5 = target: SARS-CoV-2 NSP5
Method: as §1

SARS-CoV-2 NSP6 = target: SARS-CoV-2 NSP6
Method: as §1

SARS-CoV-2 NSP9 = target: SARS-CoV-2 NSP9
Method: as §1

SARS-CoV-2 ORF10 = target: SARS-CoV-2 ORF10
Method: as §1

SARS-CoV-2 ORF3A = target: SARS-CoV-2 ORF3A
Method: as §1

SARS-CoV-2 ORF3B = target: SARS-CoV-2 ORF3B
Method: as §1

SARS-CoV-2 ORF6 = target: SARS-CoV-2 ORF6
Method: as §1

SARS-CoV-2 ORF7A = target: SARS-CoV-2 ORF7A
Method: as §1

SARS-CoV-2 ORF7B = target: SARS-CoV-2 ORF7B
Method: as §1

SARS-CoV-2 ORF8 = target: SARS-CoV-2 ORF8
Method: as §1

SARS-CoV-2 ORF9B = target: SARS-CoV-2 ORF9B
Method: as §1

[1] = target: SARS-CoV-2 ORF9Bwu (the 73-codon ORF)
Method: as §1

SARS-CoV-2 NSP15 = target: SARS-CoV-2 NSP15
Method: as §1

SARS-CoV-2 NSP16 = target: SARS-CoV-2 NSP16
Method: as §1

SARS-CoV-2 NSP4 = target: SARS-CoV-2 NSP4
Method: as §1

SARS-CoV-2 NSP7 = target: SARS-CoV-2 NSP7
Method: as §1

SARS-CoV-2 NSP8 = target: SARS-CoV-2 NSP8
Method: as §1

SARS-CoV-2 S = target: SARS-CoV-2 S
Method: as §1

Measured: yeast fitness gain

B1: LPL, P06858 (protein)
chain: MESKALLVLTLAVWLQSLTASRGGVAAADQRRDFIDIESKFALRTPEDTAEDTCHLIPGVAESVATCHFNHSSKTFMVIHGWTVTGMYESWVPKLVAALYKREPDSNVIVVDWLSRAQEHYPVSAGYTKLVGQDVARFINWMEEEFNYPLDNVHLLGYSLGAHAAGIAGSLTNKKVNRITGLDPAGPNFEYAEAPSRLSPDDADFVDVLHTFTRGSPGRSIGIQKPVGHVDIYPNGGTFQPGCNIGEAIRVIAERGLGDVDQLVKCSHERSIHLFIDSLLNEENPSKAYRCSSKEAFEKGLCLSCRKNRCNNLGYEINKVRAKRSSKMYLKTRSQMPYKVFHYQVKIHFSGTESETHTNQAFEISLYGTVAESENIPFTLPEVSTNKTYSFLIYTEVDIGELLMLKLKWKSDSYFSWSDWWSSPGFAIQKIRVKAGETQKKVIFCSREKVSHLQKGKAPAVFVKCHDKSLNKKSG
inactive: SARS-CoV-2 M -0.0701 | SARS-CoV-2 N 0.0179 | SARS-CoV-2 NSP1 = -0.06 | SARS-CoV-2 NSP10 = 0.0376 | SARS-CoV-2 NSP12 = -0.0983 | SARS-CoV-2 NSP13 = 0.0614 | SARS-CoV-2 NSP14 = 0.00223 | SARS-CoV-2 NSP2 = -0.34 | SARS-CoV-2 NSP5 = -0.0325 | SARS-CoV-2 NSP6 = 0.0177 | SARS-CoV-2 NSP9 = -0.00888 | SARS-CoV-2 ORF10 = 0.0201 | SARS-CoV-2 ORF3A -0.0475 | SARS-CoV-2 ORF3B 0.0116 | SARS-CoV-2 ORF6 = -0.0198 | SARS-CoV-2 ORF7A 0.0256 | SARS-CoV-2 ORF7B 0.0939 | SARS-CoV-2 ORF8 = -0.0531 | SARS-CoV-2 ORF9B -0.0402 | [1] 0.0554

B2: MSRB3, Q8IXL7 (protein)
chain: MSPRRTLPRPLSLCLSLCLCLCLAAALGSAQSGSCRDKKNCKVVFSQQELRKRLTPLQYHVTQEKGTESAFEGEYTHHKDPGIYKCVVCGTPLFKSETKFDSGSGWPSFHDVINSEAITFTDDFSYGMHRVETSCSQCGAHLGHIFDDGPRPTGKRYCINSAALSFTPADSSGTAEGGSGVASPAQADKAEL
inactive: SARS-CoV-2 M -0.0689 | SARS-CoV-2 N -0.133 | SARS-CoV-2 NSP10 = -0.0426 | SARS-CoV-2 NSP12 = 0.0661 | SARS-CoV-2 NSP13 = 0.021 | SARS-CoV-2 NSP15 = -0.107 | SARS-CoV-2 NSP16 = 0.0328 | SARS-CoV-2 NSP2 = -0.0547 | SARS-CoV-2 NSP4 = -0.0285 | SARS-CoV-2 NSP5 = -0.0203 | SARS-CoV-2 NSP6 = 0.0233 | SARS-CoV-2 NSP7 = 0.0799 | SARS-CoV-2 NSP8 = 0.0368 | SARS-CoV-2 NSP9 = 0.079 | SARS-CoV-2 ORF10 = -0.0468 | SARS-CoV-2 ORF3A -0.214 | SARS-CoV-2 ORF3B -0.0896 | SARS-CoV-2 ORF6 = 0.0129 | SARS-CoV-2 ORF7A 0.102 | SARS-CoV-2 ORF7B 0.054 | SARS-CoV-2 ORF8 = 0.03 | SARS-CoV-2 ORF9B 0.0117 | [1] -0.115 | SARS-CoV-2 S -0.0399

B3: N4BP2L1, Q5TBK1 (protein)
chain: MEDSFLQSFGRLSLQPQQQQQRQRPPRPPPRGTPPRRHSFRKHLYLLRGLPGSGKTTLARQLQHDFPRALIFSTDDFFFREDGAYEFNPDFLEEAHEWNQKRARKAMRNGISPIIIDNTNLHAWEMKPYAVMALENNYEVIFREPDTRWKFNVQELARRNIHGVSREKIHRMKERYEHDVTFHSVLHAEKPSRMNRNQDRNNALPSNNARYWNSYTEFPNRRAHGGFTNESSYHRRGGCHHGY
inactive: SARS-CoV-2 M -0.102 | SARS-CoV-2 NSP1 = -0.00576 | SARS-CoV-2 NSP10 = -0.0303 | SARS-CoV-2 NSP12 = -0.199 | SARS-CoV-2 NSP13 = -0.107 | SARS-CoV-2 NSP14 = 0.0234 | SARS-CoV-2 NSP2 = -0.21 | SARS-CoV-2 NSP5 = -0.0284 | SARS-CoV-2 NSP6 = -0.0653 | SARS-CoV-2 NSP7 = -0.00722 | SARS-CoV-2 NSP8 = -0.0854 | SARS-CoV-2 NSP9 = 0.137 | SARS-CoV-2 ORF10 = -0.0569 | SARS-CoV-2 ORF3A -0.0487 | SARS-CoV-2 ORF3B 0.0209 | SARS-CoV-2 ORF6 = 0.019 | SARS-CoV-2 ORF7A 0.0621 | SARS-CoV-2 ORF7B -0.0221 | SARS-CoV-2 ORF8 = 0.0105 | SARS-CoV-2 ORF9B -0.00482 | [1] -0.0446 | SARS-CoV-2 S -0.0741

B4: PDAP1, Q13442 (protein)
chain: MPKGGRKGGHKGRARQYTSPEEIDAQLQAEKQKAREEEEQKEGGDGAAGDPKKEKKSLDSDESEDEEDDYQQKRKGVEGLIDIENPNRVAQTTKKVTQLDLDGPKELSRREREEIEKQKAKERYMKMHLAGKTEQAKADLARLAIIRKQREEAARKKEEERKAKDDATLSGKRMQSLSLNK
inactive: SARS-CoV-2 M -0.0322 | SARS-CoV-2 NSP1 = 0.047 | SARS-CoV-2 NSP10 = -0.0763 | SARS-CoV-2 NSP12 = 0.0275 | SARS-CoV-2 NSP13 = 0.0526 | SARS-CoV-2 NSP15 = -0.0128 | SARS-CoV-2 NSP16 = 0.0328 | SARS-CoV-2 NSP2 = 0.109 | SARS-CoV-2 NSP5 = 0.0292 | SARS-CoV-2 NSP6 = 0.00348 | SARS-CoV-2 NSP7 = 0.0309 | SARS-CoV-2 NSP8 = -0.00918 | SARS-CoV-2 NSP9 = -0.0079 | SARS-CoV-2 ORF10 = 0.0594 | SARS-CoV-2 ORF3B -0.0159 | SARS-CoV-2 ORF6 = -0.0222 | SARS-CoV-2 ORF7A -0.113 | SARS-CoV-2 ORF7B 0.0463 | SARS-CoV-2 ORF8 = -0.017 | SARS-CoV-2 ORF9B -0.00168 | [1] 0.034 | SARS-CoV-2 S -0.0666
